Results taken from PubChem BioAssay AID1346428 (National Center for Advancing Translational Sciences (NCATS), 2018).
Values joined by “and” are separate entries in the source; they are usually repeats but may differ in a detail not shown here. Equal values may be shown once. Out of some 48,000 compounds screened, about 1,200 (2.5%) were called active. Not shown: some 2% with an inconclusive outcome.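 How the source made its calls: active means activation of at least 60% and not above a set upper limit (about 1 call in 100 departs from these limits); inconclusive means activation of 40% to 60%, or above that upper limit; inactive means activation under 40%.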 The list shows a part of the results.

What follows are molecules tested against Probable G-protein coupled receptor 32 (Homo sapiens) (UniProt O75388) (assay: qHTS for Agonists of Human Resolvin D1 Receptor DRV1). Conditions: CHO-K1 GPR32 beta-arrestin PathHunter luminescence, 90 min; at 76.9 µM; active compounds read high; zero percent set by DMSO-only wells.
UniProt O75388, sequence (O75388 whole entry, looked up): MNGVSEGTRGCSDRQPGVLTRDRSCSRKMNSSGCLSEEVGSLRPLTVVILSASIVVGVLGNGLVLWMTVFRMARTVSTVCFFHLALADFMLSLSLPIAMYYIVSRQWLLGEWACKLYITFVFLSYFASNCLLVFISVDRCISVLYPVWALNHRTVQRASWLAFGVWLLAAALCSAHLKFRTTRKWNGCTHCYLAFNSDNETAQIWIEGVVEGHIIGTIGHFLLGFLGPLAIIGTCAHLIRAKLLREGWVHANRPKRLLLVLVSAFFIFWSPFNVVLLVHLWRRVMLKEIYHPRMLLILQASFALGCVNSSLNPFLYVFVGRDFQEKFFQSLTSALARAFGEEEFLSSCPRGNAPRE
Outline: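 Readings come from a cell-based beta-arrestin complementation format: CHO-K1 GPR32 stable cells (2,500/well) treated 90 min with compounds, then beta-Gal substrate added for 1 h before chemiluminescence imaging.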
Further: 0% is about no effect.

Row | Compound | activation
1 | CCc1ccc(NC(=O)C(C)n2nnc3sc(-c4ccccc4)cc3c2=O)cc1 (stereo not drawn) | inactive: -5.89%
2 | COc1ccc(NC(=O)/C(C#N)=C/c2cc(C)n(-c3ccc(F)cc3)c2C)cc1 | inactive: 7.48%
3 | CCOC(=O)c1cccc(NC(=O)C2CCCN(S(=O)(=O)c3ccc4c(c3)oc(=O)n4C)C2)c1 (stereo not drawn) | inactive: -8.38%
4 | Cc1ccc(-n2c(=O)c3c4c(sc3n(Cc3cccc(Cl)c3)c2=O)CCC4)cc1C | inactive: 23.1%
5 | Cc1nc2nncn2c(NCc2ccc(Cl)cc2)c1C | active: 76.3%
6 | CC(C)C(=O)N(Cc1ccccc1)S(=O)(=O)c1ccc2c(c1)oc(=O)n2C | inactive: 7.38%
7 | Cc1csc2nc(COC(=O)c3ccccc3NC(=O)COc3ccccc3F)cc(=O)n12 | inactive: 0.667%
8 | Cc1ccc(Cl)cc1NC(=O)Cn1c(=O)n(CCCS(=O)(=O)C2CCCCC2)c(=O)c2ccccc21 | inactive: -15%
9 | Cc1nc2nc(SCC(=O)O)nn2c(C)c1Cc1c(F)cccc1Cl | inactive: -13%
10 | Cc1ccc(CN(C(=O)COc2ccc(Cl)c(C)c2)C2CCS(=O)(=O)C2)o1 (stereo not drawn) | inactive: -24.5%
11 | Cc1cccc2sc(N(CCCN(C)C)C(=O)c3ccc(Cl)s3)nc12 | inactive: 48.6%
12 | Cc1ccc(Nc2nc3c(S(=O)(=O)c4ccccc4)nnn3c3ccsc23)c(C)c1 | inactive: -1.1%
13 | Cc1sc2ncn(CC(=O)N3CCN(c4ccc(F)cc4)CC3)c(=O)c2c1S(=O)(=O)N1CCCCC1 | inactive: -8.33%
14 | Cc1ccc(S(=O)(=O)c2cn(CC(=O)Nc3ccc4c(c3)OCO4)c3ccccc3c2=O)cc1 | inactive: -5.08%
15 | COc1cccc(NC(=O)CSc2nc(=O)n(Cc3ccco3)c3c2CCC3)c1 | inactive: -54.4%
16 | Cc1cccc(NC(=O)Cn2nnc(C(=O)Nc3ccc(F)c(Cl)c3)c2N)c1 | inactive: -8.45%
17 | COc1cc(C2C(C(=O)OCC(C)C)=C(C)N=C3SCCC(=O)N32)ccc1OCc1ccccc1 (stereo not drawn) | inactive: -6.11%
18 | CCN(CC)CCCNC(=O)CSc1c2c(nc3cc(Cl)ccc13)CCCC2 | inactive: -14.6%
19 | Cc1cc(C)c2nc(N(Cc3cccnc3)C(=O)c3ccc(S(=O)(=O)N(C)C)cc3)sc2c1 | inactive: 3.93%
20 | CC1=C(C(=O)Nc2ccc(C)cc2C)C(C(C)C)n2nc(SCc3ccccc3Cl)nc2N1 (stereo not drawn) | inactive: -0.891%
21 | Cn1c(C(=O)NCc2ccccc2F)cc2oc3ccccc3c21 | inactive: 5.07%

Row | Compound | activation
22 | CCN1CCN(c2cc3c(cc2F)c(=O)c(S(=O)(=O)c2ccc(OC)cc2)cn3CC)CC1 | inactive: -6.85%
23 | COc1cccc2sc(N(Cc3cccnc3)C(=O)Cc3ccccc3)nc12 | inactive: -26.3%
24 | O=C(c1ccco1)n1nc(-c2ccccc2)nc1NCc1ccc(F)cc1 | inactive: 20.2%
25 | Cc1c(C(=O)Nc2cccc(C(F)(F)F)c2)sc2nc3n(c(=O)c12)CCCC3 | inactive: 26.4%
26 | CCCCNC(=O)c1ccc2c(c1)NC(=O)C(CS(=O)(=O)Cc1cccc(C)c1)N2 (stereo not drawn) | inactive: -15%
27 | COc1ccc2oc(-c3cccc(NC(=O)c4ccc(C#N)cc4F)c3)nc2c1 | inactive: 2.91%
28 | CCCCNc1ncnc2c1nnn2C | inactive: -7.44%
29 | CCN1CCN(c2oc(-c3ccc(COc4ccc(C)cc4)o3)nc2C#N)CC1 | inactive: -18.4%
30 | CC(C)Cn1c(=O)c2sccc2n2c(CCCC(=O)NCCc3ccccc3)nnc12 | inactive: -2.32%
31 | COc1cccc(C(=O)NCC(=O)OCc2cc(=O)n3c(C)csc3n2)c1 | inactive: 1.5%
32 | COc1ccc(C2CC(=O)N(Cc3ccc(F)cc3)c3ccccc3S2)cc1 (stereo not drawn) | inactive: 14.6%
33 | Cc1ccc(S(=O)(=O)N2CCN(Cc3noc(CCC(=O)N4CCCCC4)n3)CC2)c(C)c1 | inactive: -10.1%
34 | COc1cccc(NC(=O)Cn2c(=O)n(-c3ccc(Cl)cc3)c(=O)c3oc4ccccc4c32)c1 | inactive: -6.5%
35 | COc1cc(C(=O)Nc2ccc3[nH]c(=O)sc3c2)cc(OC)c1OC | inactive: 2.62%
36 | CC(C)C(=O)N1c2ncnn2C2(CCCCC2)[C@@H]2CCCC[C@@H]21 | inactive: -5.15%
37 | CC1=C(C(=O)Nc2cccnc2)C(c2cccc(F)c2)n2nc(SCc3ccccc3)nc2N1 (stereo not drawn) | inactive: 19.3%
38 | C[C@H](NC(=O)OC(C)(C)C)c1nnc(SCc2c(F)cccc2Cl)o1 | inactive: 20.1%
39 | O=C(O)CP(=O)(O)O | inactive: 4.82% and inactive: 6.59%
40 | Cc1ccc(-c2nc3c4ccccc4[nH]c(=O)n3n2)cc1 | inactive: 10.5%
41 | CCc1nc2ccc(C(=O)N3CCN(c4cccc(C)c4C)CC3)cc2nc1CC | inactive: -23.9%
42 | COCCCNC(=O)c1cc2c(=O)oc3ccc(C)cc3c2s1 | inactive: -7.49%

Row | Compound | activation
43 | O=C(c1ccc(CSc2nc3ccncc3n2Cc2ccc(F)cc2)cc1)N1CCCCCC1 | active: 61.4%
44 | O=C1CC(c2cccc(O)c2)c2c(nc(SCc3ccccc3F)[nH]c2=O)N1 (stereo not drawn) | inactive: 2.55%
45 | CCOc1ccc(C(=O)N(Cc2sccc2C)C2CCS(=O)(=O)C2)cc1 (stereo not drawn) | inactive: -15.6%
46 | CCOc1ccc(-c2cc(OC(=O)c3ccc(OC)cc3)c3c(C)oc(C)c3c(=O)c2)cc1 | inactive: -1.42%
47 | CCOc1ccccc1CNC(=O)c1cc2n(n1)CCCN(Cc1ccc(C)cc1)C2=O | inactive: -16.7%
48 | CCc1ccccc1NC(=O)Nc1ccc2c(c1)N(CC)C(=O)c1ccccc1S2 | inactive: -7.06%
49 | CCOc1ccc(NC(=O)CSc2nc(C)c(C(=O)Nc3ccccc3)c(-c3ccc(Cl)cc3)c2C#N)cc1 | inactive: 8.3%
50 | CCc1cccc(-n2c(C)nc3c(cnn3-c3ccc(C)c(C)c3)c2=O)c1 | inactive: 1.7%
51 | COc1cc(OC)c(NC2(c3ccccc3)C(=O)c3ccccc3C2=O)cc1Cl | inactive: -52%
52 | CC(=O)Nc1ccc(S(=O)(=O)Nc2cc(C)on2)cc1 | inactive: -13.1%
53 | COc1cccc(NC(=O)CSc2nc3cc(OC)c(OC)cc3c3nc(-c4ccccc4)nn23)c1 | inactive: 1.2%
54 | CCn1c2ccccc2c2cc(CN3CCN(Cc4ccccc4Cl)CC3)ccc21 | inactive: -31.8%
55 | COc1ccc(-c2c3c(=O)n(C)c(=O)n(C)c3c3c(-c4cccc(C)c4)nc4ccccc4n23)cc1 | inactive: -25%
56 | C=CCc1cccc(C=NNC(=O)CN2CCN(Cc3ccccc3)CC2)c1O | inactive: -13.8%
57 | COc1ccc2cc3cc(C(=O)N4CCN(c5cccc(Cl)c5)CC4)sc3nc2c1 | inactive: -14.4%
58 | COc1ccc(NS(=O)(=O)c2ccc3c(c2)CCN3C(=O)CCC(=O)O)cc1Cl | inactive: 9.06%
59 | CCOc1ccc(NC(=O)Cn2cc(C(=O)c3ccc(CC)cc3)c(=O)c3cc(OC)c(OC)cc32)cc1 | inactive: 21.8%
60 | COc1ccc(S(=O)(=O)NCCCO)cc1-c1nnc2c3ccccc3c(C)nn12 | inactive: -2.91%
61 | CC(C)CCNC(=O)CSc1nc2ccccc2nc1Cc1ccccc1 | inactive: 30%
62 | CCOC(=O)c1ccc2c(c1)N(C(CC)C(=O)Nc1ccccc1OC)C(=O)c1ccccc1S2 (stereo not drawn) | inactive: -10.6%
63 | Cc1ccc(NC(=O)Cn2nc(-c3ccncc3)ccc2=O)cc1Cl | inactive: 3.72%

Row | Compound | activation
64 | CCc1ccc(-n2c(=O)c3sc4ccccc4c3n(CC(=O)NC3CCCCC3)c2=O)cc1 | inactive: 3.71%
65 | Cc1cc(NC(=O)CCS(=O)(=O)c2cc(Br)cc3c2N(C(=O)C2CC2)CC3)ccc1Br | inactive: -4.27%
66 | CCOC(=O)c1nc(Nc2ccc(C(C)=O)cc2)c2ccccc2n1 | inactive: -28.5%
67 | COc1cc2c(cc1OC)C(COc1ccc3c(C)cc(=O)oc3c1)N(C(=O)C(C)C)CC2 (stereo not drawn) | inactive: -6.9%
68 | COc1ccc(Cn2c(=O)c3cccnc3n(CC(=O)Nc3ccc(C)c(F)c3)c2=O)cc1 | inactive: -12.7%
69 | Cn1ccc2cc3c(cc21)CCN3C(=O)Nc1cccnc1 | inactive: 3.3% and inactive: -6.23%
70 | O=C(Nc1c(C(=O)Nc2ccc(F)cc2)oc2ccccc12)c1cc2ccccc2o1 | inactive: 0.797%
71 | Cc1ccc(C)c(CN2CCC(CNC(=O)Nc3ccc(Br)cc3F)CC2)c1 | inactive: 18.6%
72 | Cc1ccc(C)c(CNC(=O)c2ccc3c(c2)nc2n3CCCCC2)c1 | inactive: -13.1%
73 | Cc1cc(Oc2c(C(F)(F)F)oc3c(CN4CCC(C)CC4)c(O)ccc3c2=O)cc(C)c1Cl | inactive: 4.87%
74 | O=C(Cn1c(=O)oc2cc(S(=O)(=O)N3CCCCCC3)ccc21)NCc1ccccc1Cl | inactive: 38.3%
75 | Cc1cccc(-n2ccnc2SCC(=O)Nc2ccc(F)cc2F)c1C | inactive: 26.9%
76 | COc1cccc(Cn2c(Oc3cc(C)cc(C)c3)nc3c2c(=O)n(C)c(=O)n3C)c1 | inactive: -13%
77 | COc1ccc(CC(=O)N2CCc3cc(OC)c(OC)cc3C2COc2cc(C)cc(C)c2)cc1OC (stereo not drawn) | inactive: -13.3%
78 | CCc1ccc(S(=O)(=O)N(C(=O)c2ccncc2)c2ccc3oc(C)c(C(=O)OC)c3c2)cc1 | inactive: 2.23%
79 | Cc1cc(C)cc(NC(=O)CCS(=O)(=O)c2cccc3nsnc23)c1 | inactive: -4.1%
80 | CCOC(=O)c1ccc(N2C(=O)c3n[nH]c(-c4ccco4)c3C2c2ccc(C)cc2)cc1 (stereo not drawn) | inactive: 14.6%
81 | Cc1nn(S(=O)(=O)c2ccc(Br)cc2)c(C)c1S(=O)(=O)N1CCCCCC1 | inactive: 20.9%
82 | CCOc1ccc(CCNC(=O)CN2CCN(Cc3ccc(Cl)cc3)C2=O)cc1OCC | inactive: 17.5%
83 | CC(=O)c1ccc(NS(=O)(=O)c2cccc(S(=O)(=O)c3ccc(Cl)cc3)c2)cc1 | active: 61.4%
